# Source: a collection of fitness landscapes (doi:10.1016/j.celrep.2020.107928)
# In all, about 81,000 sequences were measured (“one-hybrid fitness for binding NBS DNA”: median about -0.1, highest 2% from about 0.36 on). The list shows a part of the results.
# B1: Caulobacter ParB omega fusion; a variant is named by its letters at X, in order, B8GW30 (parent)
# chain: MESVVVGEPGMSEGRRGLGRGLSALLGEVDAAPAQAPGEQLGGSREAPIEILQRNPDQPRRTFREEDLEDLSNSIREKGVLQPILVRPSPDTAGEYQIVAGERAWRAAQRAGLKTVPIMVRELDDLAVLEIGIIENVQRADLNVLEEALSYKVLMEKFERTQENIAQTIGKSXSHVANXMRLLXLPDEVQSYLVSGELTAXHARAIAAAADPVALAKQIIEGGLSVRETEALARKAPNLSAGKSKGGRPPRVKDTDTQALESDLSSVLGLDVSIDHRGSTGTLTITYATLEQLDDLCNRLTRGI
# Variants of: B1
# Experiment: one-hybrid fitness for binding NBS DNA (the Noc-binding site; scaled: cognate 1, non-cognate 0); higher = stronger binding
# Conditions: with NBS DNA site
# Method in brief: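 On M9-minus-histidine containing 0.1 mM IPTG and 5 mM 3-AT, E. coli USO cells with a HIS3 reporter, site 19 bp from the promoter, grew 48 hours at 37°C to select Caulobacter ParB libraries randomised at four specificity codons. Plasmids from before and after were Illumina-sequenced, with three replicate libraries pooled and variants under 10 reads left out. Fitness is the log change in variant-to-wild-type read ratio, rescaled against cognate and non-cognate.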
row,Variant,one-hybrid fitness for binding NBS DNA
1,CKCC,≤ 0.2
2,DRSM,≤ 0.2
3,PYTL,≤ 0.2
4,TNSI,≤ 0.2
5,CAKA,≤ 0.2
6,YRND,≤ 0.2
7,CSEG,≤ 0.2
8,EWDS,≤ 0.2
9,IWLF,≤ 0.2
10,RNKA,≤ 0.2
11,SDNH,≤ 0.2
12,CDGK,≤ 0.2
13,TGPI,≤ 0.2
14,NQKL,≤ 0.2
15,ARKN,≤ 0.2
16,LTWG,≤ 0.2
17,SEQG,≤ 0.2
18,QMFD,≤ 0.2
19,APQR,≤ 0.2
20,MLGI,≤ 0.2
21,RVIE,≤ 0.2
22,HPKL,≤ 0.2
23,WDVT,≤ 0.2
24,SPHN,≤ 0.2

row,Variant,one-hybrid fitness for binding NBS DNA
1,WDVR,≤ 0.2
2,KLRA,≤ 0.2
3,NPRY,≤ 0.2
4,QMQY,0.223
5,VYLY,≤ 0.2
6,GSRA,≤ 0.2
7,PNRM,≤ 0.2
8,IDMW,≤ 0.2
9,LVSP,≤ 0.2
10,DRRI,≤ 0.2
11,NART,≤ 0.2
12,CISN,≤ 0.2
13,VRWH,≤ 0.2
14,SVPL,≤ 0.2
15,INKR,≤ 0.2
16,KAMS,≤ 0.2
17,SSSM,≤ 0.2
18,EHVV,≤ 0.2
19,VMNY,≤ 0.2
20,PQTV,≤ 0.2
21,ADVI,≤ 0.2
22,QHWA,≤ 0.2
23,ITGT,≤ 0.2
24,CPKS,≤ 0.2

row,Variant,one-hybrid fitness for binding NBS DNA
1,LRNY,≤ 0.2
2,ITCT,≤ 0.2
3,NCAT,≤ 0.2
4,KWVD,≤ 0.2
5,RVLR,0.289
6,RLFY,≤ 0.2
7,AWGS,≤ 0.2
8,ETPV,≤ 0.2
9,AYAA,≤ 0.2
10,DNAL,≤ 0.2
11,NRCR,≤ 0.2
12,HSTS,≤ 0.2
13,LFNN,≤ 0.2
14,FLVT,≤ 0.2
15,NVYL,≤ 0.2
16,STDC,≤ 0.2
17,KRKE,≤ 0.2
18,KVPA,≤ 0.2
19,RSAS,0.424
20,LDTN,≤ 0.2
21,SCKH,≤ 0.2
22,GAHV,≤ 0.2
23,MRNT,0.204
24,FIFV,≤ 0.2

row,Variant,one-hybrid fitness for binding NBS DNA
1,WTRM,≤ 0.2
2,SQSI,≤ 0.2
3,TRWH,≤ 0.2
4,HDRM,≤ 0.2
5,VWTV,≤ 0.2
6,ELNA,≤ 0.2
7,TYTN,≤ 0.2
8,SILL,≤ 0.2
9,PHPI,≤ 0.2
10,RVVP,≤ 0.2
11,NPRR,≤ 0.2
12,TVAL,≤ 0.2
13,MSCK,≤ 0.2
14,TMFC,≤ 0.2
15,ERFT,≤ 0.2
16,ADAE,≤ 0.2
17,HPNM,≤ 0.2
18,YSNR,≤ 0.2
19,NSLE,≤ 0.2
20,RSMG,≤ 0.2
21,VAVC,≤ 0.2
22,KDTE,≤ 0.2
23,PFHH,≤ 0.2
24,WAQR,≤ 0.2

row,Variant,one-hybrid fitness for binding NBS DNA
1,HARF,≤ 0.2
2,IEVR,≤ 0.2
3,DSKY,≤ 0.2
4,KERR,≤ 0.2
5,RGMG,≤ 0.2
6,WMMR,≤ 0.2
7,YCRH,≤ 0.2
8,QLDP,≤ 0.2
9,EIKR,≤ 0.2
10,LCNH,≤ 0.2
11,YVRR,≤ 0.2
12,RSHN,≤ 0.2
13,NSPS,≤ 0.2
14,GTGG,≤ 0.2
15,RCMN,≤ 0.2
16,QIHD,≤ 0.2
17,WDSG,≤ 0.2
18,NAMD,≤ 0.2
19,DWKF,≤ 0.2
20,RHKM,0.203
21,EMIS,≤ 0.2
22,AATH,≤ 0.2
23,QFTA,≤ 0.2
24,HDYC,≤ 0.2

row,Variant,one-hybrid fitness for binding NBS DNA
1,MFGS,≤ 0.2
2,WVPI,≤ 0.2
3,WPAR,≤ 0.2
4,AFTY,≤ 0.2
5,DIPS,≤ 0.2
6,NVLP,≤ 0.2
7,GRQF,≤ 0.2
8,YHSR,≤ 0.2
9,QADH,0.204
10,FKKC,≤ 0.2
11,LYNE,≤ 0.2
12,RLYV,≤ 0.2
13,TGRL,≤ 0.2
14,NSSL,≤ 0.2
15,RRFS,0.666
16,QLCR,0.468
17,AWWV,≤ 0.2
18,DTTS,≤ 0.2
19,FVHG,≤ 0.2
20,DNDR,≤ 0.2
21,MYKA,≤ 0.2
22,TPIE,≤ 0.2
23,TELA,≤ 0.2
24,TFHG,≤ 0.2

row,Variant,one-hybrid fitness for binding NBS DNA
1,FPHS,≤ 0.2
2,DLSL,≤ 0.2
3,WEYM,≤ 0.2
4,VATY,≤ 0.2
5,NVTP,≤ 0.2
6,KEND,≤ 0.2
7,QKCC,≤ 0.2
8,YWLT,≤ 0.2
9,RRLD,≤ 0.2
10,TACL,≤ 0.2
11,YDCT,≤ 0.2
12,TVGW,≤ 0.2
13,QFTR,0.287
14,GLWR,≤ 0.2
15,FGPF,≤ 0.2
16,YGSP,≤ 0.2
17,TPVQ,0.763
18,SYSK,≤ 0.2
19,ASPA,≤ 0.2
20,GFST,≤ 0.2
21,QQSY,0.21
22,TSAP,≤ 0.2
23,KPPA,≤ 0.2
24,LRMG,≤ 0.2

row,Variant,one-hybrid fitness for binding NBS DNA
1,NILS,≤ 0.2
2,TGYI,≤ 0.2
3,FTSL,≤ 0.2
4,TYVN,≤ 0.2
5,MRQT,≤ 0.2
6,PRYF,≤ 0.2
7,CILG,≤ 0.2
8,RGMD,≤ 0.2
9,RNRR,0.504
10,GGTA,≤ 0.2
11,IQSR,≤ 0.2
12,NYDR,≤ 0.2
13,PKSG,≤ 0.2
14,RMFC,≤ 0.2
15,VQMM,≤ 0.2
16,PKRN,≤ 0.2
17,TMAG,≤ 0.2
18,VCLI,≤ 0.2
19,GCDC,≤ 0.2
20,LWKN,≤ 0.2
21,IRMS,≤ 0.2
22,ILIH,≤ 0.2
23,EWDA,≤ 0.2
24,HQRC,≤ 0.2

row,Variant,one-hybrid fitness for binding NBS DNA
1,YFMT,≤ 0.2
2,SFFR,≤ 0.2
3,KRHD,≤ 0.2
4,MREN,≤ 0.2
5,DFSG,≤ 0.2
6,THPT,≤ 0.2
7,ARIN,≤ 0.2
8,REAN,≤ 0.2
9,HDAG,≤ 0.2
10,HMKG,≤ 0.2
11,INAG,≤ 0.2
12,PWRI,≤ 0.2
13,EGHK,≤ 0.2
14,YCAA,≤ 0.2
15,WQLG,≤ 0.2
16,QVKK,0.221
17,QCGQ,0.24
18,CGAF,≤ 0.2
19,KHKA,≤ 0.2
20,HRRQ,≤ 0.2
21,FVSR,≤ 0.2
22,PMEF,≤ 0.2
23,KTNT,0.226
24,VGAS,≤ 0.2

row,Variant,one-hybrid fitness for binding NBS DNA
1,SNIK,≤ 0.2
2,FWPY,≤ 0.2
3,KVPW,≤ 0.2
4,SYRL,≤ 0.2
5,VWER,≤ 0.2
6,KIAI,≤ 0.2
7,GAAT,≤ 0.2
8,NYLL,≤ 0.2
9,WTDD,≤ 0.2
10,WLRT,≤ 0.2
11,LTDT,≤ 0.2
12,NSVR,≤ 0.2
13,IVRW,≤ 0.2
14,SPYS,≤ 0.2
15,IYTC,≤ 0.2
16,GLRF,≤ 0.2
17,LQFT,≤ 0.2
18,FCTC,≤ 0.2
19,LWER,≤ 0.2
20,TLAL,≤ 0.2
21,PSWM,≤ 0.2
22,NILG,≤ 0.2
23,TPPA,≤ 0.2
24,PTQA,≤ 0.2

row,Variant,one-hybrid fitness for binding NBS DNA
1,RVTG,≤ 0.2
2,PAVL,≤ 0.2
3,PCET,≤ 0.2
4,CKSF,≤ 0.2
5,DGDP,≤ 0.2
6,YSAW,≤ 0.2
7,VAKL,≤ 0.2
8,IVKS,≤ 0.2
9,NMPA,≤ 0.2
10,KTIC,≤ 0.2
11,TADS,≤ 0.2
12,ECLG,≤ 0.2
13,GRMF,≤ 0.2
14,HLPI,≤ 0.2
15,NLPM,≤ 0.2
16,VRKT,0.393
17,GWPW,≤ 0.2
18,SYVG,≤ 0.2
19,SAYV,≤ 0.2
20,SVEV,≤ 0.2
21,GPHS,≤ 0.2
22,CHQA,≤ 0.2
23,YHWR,≤ 0.2
24,AKIM,≤ 0.2

row,Variant,one-hybrid fitness for binding NBS DNA
1,KQQC,≤ 0.2
2,ALPI,≤ 0.2
3,GPWM,≤ 0.2
4,ILGV,≤ 0.2
5,PIGA,≤ 0.2
6,KWRC,≤ 0.2
7,STRN,≤ 0.2
8,QTSF,≤ 0.2
9,IHDA,≤ 0.2
10,IGVR,≤ 0.2
11,PTKY,≤ 0.2
12,YVAW,≤ 0.2
13,LDLC,≤ 0.2
14,NITD,≤ 0.2
15,MYHS,≤ 0.2
16,FPKS,≤ 0.2
17,LPTL,≤ 0.2
18,SNSE,≤ 0.2
19,SHHP,≤ 0.2
20,IMYD,≤ 0.2
21,DGVK,≤ 0.2
22,RQVS,0.211
23,PAIC,≤ 0.2
24,QYAY,≤ 0.2

row,Variant,one-hybrid fitness for binding NBS DNA
1,NICT,≤ 0.2
2,HFMG,≤ 0.2
3,HYLY,≤ 0.2
4,AFTE,≤ 0.2
5,QPSS,≤ 0.2
6,YCSF,≤ 0.2
7,RERK,≤ 0.2
8,QCGN,≤ 0.2
9,FICS,≤ 0.2
10,ADPR,≤ 0.2
11,VKYA,≤ 0.2
12,IKTF,≤ 0.2
13,MHLI,≤ 0.2
14,TLVG,≤ 0.2
15,KCEI,≤ 0.2
16,RKWW,≤ 0.2
17,AEPE,≤ 0.2
18,HVDR,≤ 0.2
